The test system of the assay is luciferase-reporter HIV-1 NL4-3 pseudotyped with HxBc2 envelope in U87.CD4.CXCR4 target cells. Briefly: Single-round infection assay, early stages (compound present during infection of target cells). As to conditions: for IC50: Human immunodeficiency virus 1, NL43, U87.CD4.CXCR4, read-out: IC50 early stages; for IC50 early stages: U87.CD4.CXCR4 target cells, luciferase. From the text:
Single-round infectious envelope-pseudotyped luciferase-reporter viruses were produced in 293T cells co-transfected by calcium phosphate precipitation (Profection Mammalian Transfection System; Promega, Madison, Wis.) with the envelope-deficient HIV-1 NL4-3 vector (pNL4-3-LucR^+E^−; a gift of N. R. Landau, New York University) (Connor et al., 1995, Virology 206:935-944), which carries the luciferase-reporter gene; and the HxBc2 envelope-expressing vector (obtained from Kathleen Page and Dan Littman through the AIDS Research and Reference Reagent Program, Division of AIDS, NIAID, NIH) (Page et al., 1990, J Virol 64:5270-5276). All MA mutations within the pNL4-3-LucR^+E^− vector were synthesized and validated by Genescript (Piscataway, N.J.). After 6 h of incubation at 37° C., the DNA-containing medium was removed, cells were washed, and fresh medium with or without MA-targeted inhibitory (MTI) compounds (at concentrations between 3.1 and 100 μM) was added. Supernatants containing the envelope-pseudotyped viruses were collected 2 days later, clarified by centrifugation, aliquoted, and stored at −80° C. until use. Pseudotype stocks were quantified by p24^gag content (Advanced Bioscience Laboratories, Kensington, Md.).
To determine whether the compounds of the invention affect early stages of the viral life cycle, 50 μL medium alone or containing MTI compounds at twice the desired final concentration (between 3.1 and 100 μM) was added to the U87.CD4.CXCR4 target cells plated in 96-well plates, and 50 μL of pseudotype stocks (not treated during production in 293T cells) was added immediately. Alternatively, to study the inhibitory effects of the compounds of the invention during the late stages of the viral life cycle, untreated or MTI-treated pseudotype stocks were diluted 1:10 with fresh medium and 100 μL was used for infection of U87.CD4.CXCR4 target cells; this dilution ensured that any effect observed was due to the concentration of the compound present during viral production and not to the residual amount of compound present during infection of target cells. Assessment of the effects of the compounds of the invention on early and late stages of infection with pseudotype stocks produced with a luciferase-reporter vector encoding a mutant MA was done in the same manner. Infections were performed for 2 days and quantified by measuring luciferase activity in cell lysates (Luciferase Assay System, Promega) using a microplate luminometer (GloMax, Promega).
Effects on assembly were identified by incubating the viral producer cells (293T) in the absence or in the presence of various concentrations of the compounds. Supernatants containing virus (that encodes for firefly luciferase as a reporter gene) were then diluted 10-fold and used to infect the target cells (U87 CD4-CXCR4). Compound-induced aberrant assembly was then manifested as a decrease in infectivity of the target cells, as compared to those infected with virus from untreated cells. Complementarily, effects on early-stage events were determined by producing virus in the absence of compound, then exposing target cells to virus in the absence or presence of various concentrations of compounds. […] The previously discovered small molecule matrix inhibitor ITI-367 ((3-(2-methoxyphenyl)-4-[3-trifluoromethyl-phenyl]-1,2,4-oxadiazol-5-one) was included in this analysis for comparison. Not only do the compounds of the invention show increased efficacy over ITI-367 but these small-molecule inhibitors are capable of disrupting both early- and late-stage processes in the replication cycle of HIV-1. Calculated 50% inhibitory concentration (IC50) values are shown in Table 3.

The source of these data is patent US20130109698A1, “Small Molecule Inhibitors of Functions of the HIV-1 Matrix Protein” (priority 2010, published 2013).

Where only a bound is given, the exact number is not on record here.

One may read the IC50 as the concentration at which inhibition is half-maximal.

For `COc1ccc(NC(C)=O)cc1NC(=O)Cn1cnc2scc(-c3ccc(C)s3)c2c1=O` [CMPD-10, N-(5-acetamido-2-methoxyphenyl)-2-(5-(5-methylthiophen-2-yl)-4-oxothieno[2,3-d]pyrimidin-3(4H)-yl)acetamide], the “effect on early-stage events, in words” value was “affect viral replication at an early, pre-integration event” and the IC50 was 30 µM.
For `O=C(CNC(=O)COc1ccccc1)NCc1ccc(C(=O)N2CCCCC2)cc1` [CMPD-14, N-(2-oxo-2-((4-(piperidine-1-carbonyl)benzyl)amino)ethyl)-2-phenoxyacetamide], the “effect on early-stage events, in words” value was “affect viral replication at an early, pre-integration event” and the IC50 turned out to be 57 µM.
Regarding `O=C1NC(c2ccccc2)(c2ccccc2)C(=O)N1CN1CCC(c2nc3ccccc3o2)CC1` [CMPD-13, 3-((4-(benzo[d]oxazol-2-yl)piperidin-1-yl)methyl)-5,5-diphenylimidazolidine-2,4-dione], the “effect on early-stage events, in words” value is recorded as “no activity”.
For the molecule `CCOc1ccc(NC(=O)Cc2cn3ccsc3n2)cc1S(=O)(=O)N1CCCCC1` [CMPD-18, N-(4-ethoxy-3-(piperidin-1-ylsulfonyl)phenyl)-2-(imidazo[2,1-b]thiazol-6-yl)acetamide], the “effect on early-stage events, in words” value was “affect viral replication at an early, pre-integration event” and the IC50 was found to be 26 µM.
Consider `O=C(NCc1ccc(CN2CCCC2)cc1)c1ccc(C2SCCCS2)cc1` [CMPD-19, 4-(1,3-dithian-2-yl)-N-(4-(pyrrolidin-1-ylmethyl)benzyl)benzamide], for which the IC50 early stages entry is recorded as “Not Active”.
On the same count and under the same terms, with `Cc1ccc(NC(=O)CN2CCN(Cc3nc(-c4ccc(F)cc4)no3)CC2)cc1` [CMPD-7, 2-(4-((3-(4-fluorophenyl)-1,2,4-oxadiazol-5-yl)methyl)piperazin-1-yl)-N-(p-tolyl)acetamide] the entry was “Not Active”.
Turning to `COc1ccccc1-c1noc(=O)n1-c1cccc(C(F)(F)F)c1` [ITI-367, 3-(2-methoxyphenyl)-4-[3-trifluoromethyl-phenyl]-1,2,4-oxadiazol-5-one, reference compound], the IC50 was over 100 µM.
For the molecule `COc1cc2nc(CN3CCN(CC(=O)Nc4cccc(C)c4C)CC3)[nH]c(=O)c2cc1OC` [CMPD-8, 2-(4-((6,7-dimethoxy-4-oxo-3,4-dihydroquinazolin-2-yl)methyl)piperazin-1-yl)-N-(2,3-dimethylphenyl)acetamide], the “effect on early-stage events, in words” value is recorded as “affect viral replication at an early, pre-integration event” and the IC50 was over 100 µM.
`COc1c(Cl)cc(C(=O)N2CCN(Cc3nc(-c4ccc(C)cc4)no3)CC2)cc1Cl` [CMPD-3, (3,5-dichloro-4-methoxyphenyl)(4-((3-(p-tolyl)-1,2,4-oxadiazol-5-yl)methyl)piperazin-1-yl)methanone]: the “effect on early-stage events, in words” value is “affect viral replication at an early, pre-integration event” and the half-inhibitory concentration (IC50) is over 100 µM.
